# Assay results reported in PubChem BioAssay AID1347073 (National Center for Advancing Translational Sciences (NCATS), 2019).
# Hit rate of the full screen: of about 45,000 compounds, about 200 (0.44%) were called active. About 7% were inconclusive and are not listed. The call rests on the fitted dose curve; in most records, active means well fitted activation curve with a large enough effect; inconclusive means small, poorly fitted or top-dose-only effect; inactive means no such curve, though single readings can be large or run the other way. This is one part of the list.
# Assay: qHTS of TDP-43 Inhibitors: NCGC Sytravon Library Screen; further: 0% is about no effect; nearly all actives have a fitted effect of over 55% in size
# Settings: yeast TDP-43 toxicity rescue, BacTiter-Glo growth, 24 h; series mostly up to 46.1 µM; growth rescue (activation): at the top concentration
# In short: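 TDP-43-expressing yeast, pregrown in raffinose, seeded at OD600 0.02 in galactose medium with compound for 24 hr at 30 deg C. Growth read by BacTiter-Glo luminescence, so rescue of toxicity appears as activation.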
row,Compound,growth rescue (activation)
1,N#CC1=C(SCC(N)=O)NC(=O)CC1c1cccc2ccccc12 (stereo unspecified),inactive: 7.68%
2,O=c1cc(CN2CCc3ccccc32)c2ccc(O)cc2o1,inactive: -7.93%
3,CC1CN(C(=O)COC(=O)c2ccc(Cl)c(S(=O)(=O)N3CCCCC3)c2)CC(C)O1 (stereo unspecified),inactive: 9.74%
4,Cn1nccc1C(=O)Oc1ccc(/C=N/NC(=O)c2ccccc2O)cc1,inactive: 4.92%
5,C=CCNC(=S)N/N=C(\C)c1cccc(NC(C)=O)c1,inactive: -2.63%
6,Cc1nn(C(C)C(=O)N2CCc3ccccc3C2)c(=O)c2cc3occc3n12 (stereo unspecified),inactive: -13.8%
7,CCCc1ccc(C(O)c2ncc(-c3ccc(OC)cc3)[nH]2)cc1 (stereo unspecified),inactive: 3.52%
8,COc1ccc(N2C(=O)CS(=O)C(c3ccccc3)C2=O)cc1 (stereo unspecified),inactive: -1.69%
9,CC(C)Cc1nc2n[nH]c(N)c2c2c1CCCC2,inactive: 8.62%
10,N#Cc1nc(-c2ccccc2F)oc1N1CCN(C(=O)c2ccco2)CC1,inactive: 10.5%
11,COc1ccc(N(CC(=O)NC2CC3CCC2C3)S(=O)(=O)c2ccc(C)c([N+](=O)[O-])c2)cc1 (stereo unspecified),inactive: 10.9%
12,O=S(=O)(c1ccc(F)cc1)N1CCN(Cc2ccccn2)CC1,inactive: -4.76%
13,COc1ccccc1COC(=O)N/C=C/c1ccco1,inactive: -2.95%
14,CSCCC(NC(=O)/C(=C\c1ccc(Cl)cc1)NC(=O)c1ccccc1)C(=O)O (stereo unspecified),inactive: 4%
15,CCOC(=O)N1CCN(C(=S)NC(=O)c2nn(C)cc2Br)CC1,inactive: 11.6%
16,COc1ccc(/C=C2\SC(=S)N(Cc3cccnc3)C2=O)cc1C,inactive: -14.7%
17,Cc1nnc(SCC(=O)NCC(=O)Nc2ccc(F)c(F)c2F)n1N,inactive: 10.8%
18,Cc1cccc(N2C(=O)c3cccc4c(N5CCCCC5)c([N+](=O)[O-])cc(c34)C2=O)c1C,inactive: 9.64%
19,Cc1cc(Br)ccc1S(=O)(=O)n1ccnc1C,inactive: 3.72%
20,Cn1c(=O)cc(OCC(=O)NCc2cccs2)c2ccccc21,inactive: 10.5%
21,CC(C)c1ccccc1NC(=O)C1CN(S(=O)(=O)c2ccccc2)CCN1S(=O)(=O)c1ccccc1 (stereo unspecified),inactive: 7.96%
22,Cc1ccc(-c2cn3nc(C)c(C)nc3n2)cc1,inactive: -9.56%

row,Compound,growth rescue (activation)
1,CCCNC(=O)c1cnc(Sc2ncc(C(F)(F)F)cc2Cl)n1C,inactive: 27.4%
2,COc1ccc(OC)c(-c2csc(NC(=O)Cc3cc(OC)c(OC)c(OC)c3)n2)c1,inactive: 9.8%
3,CCCC(=O)N1CCC1(C)C(=O)Nc1cccc(OC(C)C)c1 (stereo unspecified),inactive: 1.39%
4,O=C(CSc1nnc(SCc2ccc(Cl)cc2)s1)N/N=C/c1c(Cl)cccc1Cl,inactive: 1.56%
5,Cc1oc(-c2cccs2)nc1CN1CC[C@@](O)(c2ccccc2)[C@H]2CCCC[C@@H]21,inactive: 0.476%
6,O=C(NC1CCCCC1)C1CCN(c2ncccn2)CC1,inactive: -0.824%
7,Cc1ccc(S(=O)(=O)N[C@H](C(=O)OCC(=O)NC(=O)NCc2ccco2)C(C)C)cc1,inactive: -5.83%
8,COc1ccc(NC(=O)C(C)N2CCN(C)CC2)cc1 (stereo unspecified),inactive: 4.55%
9,CC(C)C[C@H](NC(=O)NC1CCCc2ccccc21)C(=O)O (stereo partly specified),inactive: 6.43%
10,Cc1cc(C)nc(NC(=O)CSc2nn(-c3ccccc3)c(=S)s2)n1,inactive: 5.09%
11,CC(Sc1ccc(S(=O)(=O)N2CCOCC2)cn1)c1ccccc1Cl (stereo unspecified),inactive: -10.9%
12,COc1cc2nc(/C=C/c3cc(OC)c(OC)c(OC)c3)sc2cc1SC,inactive: -0.655%
13,COC(=O)c1cccc(NC(=O)CCSc2ccc(Cl)cc2)c1C,inactive: 2.15%
14,N/C(=N\OC(=O)COc1ccc(Cl)cc1Cl)c1cccnc1,inactive: 18.2%
15,CSc1ccccc1NC(=O)C1CCCN(S(C)(=O)=O)C1 (stereo unspecified),inactive: 1.01%
16,CSc1nc(SCC(N)=O)c2c3c(sc2n1)CN(C)CC3,inactive: -45.2%
17,CC1(C(=O)NS(=O)(=O)c2ccccc2Cl)CCN1C(=O)CCc1ccc(Cl)cc1Cl (stereo unspecified),inactive: -1.53%
18,CCCCNC(=O)N1CCc2ccccc2C1,inactive: 3.82%
19,Cn1c(C(=O)NCc2ccccc2F)cc2oc3ccccc3c21,inactive: 9.36%
20,CCCn1c(SCc2ccc(C(=O)OC)o2)nc2ccccc2c1=O,inactive: 15.6%
21,COc1ccc(C2CC(c3ccc([N+](=O)[O-])cc3)=NN2C(C)=O)cc1 (stereo unspecified),inactive: -10.9%
22,Cc1ccc(F)cc1C(=O)N1CCCC(C)(C(=O)NS(=O)(=O)C2CC2)C1 (stereo unspecified),inactive: 11.8%

row,Compound,growth rescue (activation)
1,Cc1ccc(NC(=O)c2cc(S(=O)(=O)NCCc3ccccc3)ccc2F)cc1Cl,inactive: 12.7%
2,O=C(CN(Cc1ccccc1)C(=O)CCC(=O)Nc1ccccn1)NCc1ccc(F)cc1,inactive: 0.449%
3,COc1cc(OC)c(OC)cc1/C=N/NC(=O)c1ccc(CSc2nc(C)cc(C)n2)cc1,inactive: 25.4%
4,NC1=NC2(CCC(c3ccccc3)CC2)n2c(nc3ccccc32)N1 (stereo unspecified),inactive: -9.05%
5,COc1ccc(/C(C)=N/NC(=O)c2nnn(-c3nonc3N)c2-c2ccccc2)cc1,inactive: 13.3%
6,O=C(NC1CCCC1)C(c1c(F)cccc1Cl)N(C(=O)c1csnn1)C1CC1 (stereo unspecified),inactive: 13.1%
7,O=C(O)CSc1nnc(CNc2ccc(F)cc2)n1-c1ccccc1,inactive: 0.093%
8,Cc1ccc(O)c(NC(=O)c2cc(C)no2)c1,inactive: 26.3%
9,CCOC(=O)c1cc(CC)sc1NC(=O)COc1ccc2c(C)cc(=O)oc2c1,inactive: 30.6%
10,Cc1cc(C)nc(NS(=O)(=O)c2ccc(NC(=O)C3(c4ccccc4)CCCC3)cc2)n1,inactive: 7.37%
11,Cn1c(CO)cnc1S(=O)(=O)Cc1ccc(Cl)cc1,inactive: 7.86%
12,CCOc1ccc(C(=O)N(Cc2sccc2C)C2CCS(=O)(=O)C2)cc1 (stereo unspecified),inactive: 5.37%
13,COc1ccc(CCNC(=O)COc2ccc(N(C)S(=O)(=O)c3ccc(C)cc3)cc2)cc1OC,inactive: 3.63%
14,Cc1ccc(NC(=O)/C(=C\c2ccco2)NC(=O)c2ccco2)cc1,inactive: -17.2%
15,COc1ccccc1CCNC(=O)C1CCN(C(=O)/C=C/c2ccccc2)CC1,inactive: 22.3%
16,COc1ccc(C(=O)NC(=S)NCc2cccnc2)cc1Cl,inactive: 17.8%
17,COCc1ccc(CN2CCC(CO)(CC3CCCCO3)CC2)o1 (stereo unspecified),inactive: 13.3%
18,O=C(Nc1nc2ccccc2[nH]1)c1ccccc1,inactive: 7.83%
19,COc1ccc(CONc2ncnc3nonc23)cc1[N+](=O)[O-],inactive: -11.5%
20,CC(=O)Nc1ccc(NC(=O)c2nc(S(=O)(=O)Cc3cccc(C)c3)ncc2Cl)cc1,inactive: 5.34%
21,Cc1ccc(S(=O)(=O)c2cc(OC(=O)c3ccco3)ccc2OC(=O)c2ccco2)cc1,inactive: -8.34%
22,COc1cccc(C(c2nnnn2CC2CCCO2)N2CCN(C(=O)c3ccco3)CC2)c1OC (stereo unspecified),inactive: -3.24%

row,Compound,growth rescue (activation)
1,Cc1cc(OCCCC(=O)NCCN2C(=O)S/C(=C\c3cccnc3)C2=O)ccc1Cl,inactive: 5.8%
2,COc1ccccc1NC(=O)COC(=O)CNC(=O)C1CCCCC1,inactive: 13.6%
3,O=c1oc2cc(O)ccc2cc1-c1nc2c(s1)CCc1ccccc1-2,inactive: 21.9%
4,Cc1c(Br)ccc(NC(=O)Cn2nc(-c3cccs3)ccc2=O)c1C,inactive: 22.9%
5,COc1ccc(-c2csc3nc(-c4cccnc4)nc(N4CCC(C(N)=O)CC4)c23)cc1OC,inactive: -6.84%
6,Cc1ccc(NC(=O)CSCc2ccco2)cc1,inactive: 27%
7,CC(O)CN1CC(O)=C(c2nc3ccccc3s2)C1=N (stereo unspecified),inactive: 6.33%
8,CCn1cnc2cc(NCc3ccc(Br)cc3)ccc21,inactive: 11%
9,Cc1ccc(NC(=O)C(=O)NCCN2CCN(C(=S)Nc3ccccc3)CC2)cc1,inactive: 13.1%
10,Cc1sc(NC(=O)CSc2n[nH]c(N)n2)c(C#N)c1C,inactive: -3.32%
11,CCc1cc(CNC(=O)CCc2nnc(Cc3cccc(C)c3)o2)on1,inactive: 2.61%
12,CN(C)C(=O)CN1CCN(Cc2cn(C)nc2-c2ccc3c(c2)OCCO3)CC1,inactive: 12.8%
13,COc1cc(C(=O)N[C@@H](Cc2c[nH]c3ccccc23)C(=O)O)cc(OC)c1OC,inactive: 12.6%
14,CON(c1nc(Cl)nc(N(C)C)n1)S(=O)(=O)c1ccc(C)cc1,inactive: 21.9%
15,CCOC(=O)COc1c(Cl)cc(C2NC(=S)NC(c3ccccc3)=C2C(C)=O)cc1OC (stereo unspecified),inactive: -9.89%
16,O=C(N/N=C/c1ccc[nH]1)c1ccncc1,inactive: -8.54%
17,CC(C)OC(=O)CC1C(=O)NCCN1C(=O)COc1ccc(C(C)(C)C)cc1 (stereo unspecified),inactive: 0.725%
18,O=C(COc1ccc(Br)cc1)NNC(=S)NC(=O)c1ccccc1[N+](=O)[O-],inactive: -3.07%
19,CNc1cnc(-c2cc(OC)c(OC)c(OC)c2)cn1,inactive: 3.39%
20,Nc1nnc(CC(=O)N/N=C/c2ccc(-c3ccc(F)cc3)o2)s1,inactive: -1.34%
21,CCCNC(=O)C1(C)CCCN(C(=O)COCc2ccccc2)C1 (stereo unspecified),inactive: 3.72%
22,Cc1ccc(-c2cn3nc(-c4ccccc4)c(-c4ccccc4)nc3n2)cc1,inactive: 16.1%

row,Compound,growth rescue (activation)
1,Cc1ccc(Nc2nc(C)cs2)cc1,inactive: 14.9%
2,CN(C)C(CNC(=O)C1CCCN1C(=O)c1cccs1)c1ccccc1 (stereo unspecified),inactive: -7%
3,O=C(COc1ncnc2ccccc12)Nc1ccc(S(=O)(=O)N2CCOCC2)cc1,inactive: -6.59%
4,Cc1ccc(NC(=O)COC(=O)CC2CC3CCC2C3)cc1S(=O)(=O)N1CCOCC1 (stereo unspecified),inactive: 23.8%
5,O=C(NN=C1CCCCC1)c1cc(-c2ccccc2)n[nH]1,inactive: 0.728%
6,O=C(NCc1ccccc1)c1ccc(-c2cn[nH]c2)c2ccoc12,inactive: -25%
7,COc1ccccc1Oc1ccc(N/C=C/C(=O)c2ccc(C)o2)cc1,inactive: -3.67%
8,COc1cccc(NC(=S)N(Cc2ccc(C(=O)O)cc2)Cc2ccc(OC)c(OC)c2)c1,inactive: -15.5%
9,COc1cc(/C=C/C(=O)O)cc(S(=O)(=O)NCCCC(=O)O)c1OC,inactive: -6.95%
10,O=C(C1=C[C@@H]2[C@H]3C(=O)N(c4cccc(Cl)c4)C(=O)[C@H]3[C@@H](C(=O)c3ccc(Cl)cc3)N2C=C1)c1ccccc1,inactive: 2.98%
11,COc1ccc2[nH]c(=O)c(CNC3CCCCC3)cc2c1,inactive: -1.03%
12,COc1ccc(NC(=S)N2CCOCC2)c(OC)c1,inactive: 14.7%
13,Cc1cc(=O)[nH]c(N/N=C/c2ccc(OC(=O)c3cccnc3)cc2)n1,inactive: -10.8%
14,CCCCN(CC)CCNC(=O)CN1C(=O)COc2ccc(S(=O)(=O)N3CCCC3)cc21,inactive: 6.98%
15,Cc1ccc(C(=O)N2CCC(C(=O)NCc3ccco3)CC2)cc1,inactive: -6.75%
16,O=C(CCNC(=O)c1ccccc1Cl)Nc1cccc(S(=O)(=O)N2CCCCC2)c1,inactive: 14.9%
17,COc1ccc(CCC(=O)Nc2ccc(S(=O)(=O)N3CCOCC3)cc2)cc1,inactive: 14.4%
18,O=C(NC1CCCCCC1)c1ccc(Br)o1,inactive: 10.8%
